Assay results reported in article PMC12136788.
The other results are listed elsewhere or left out.

T1: UNK ZnF1-3 (human, UniProt Q9C0B0 31-174)
T1 sequence: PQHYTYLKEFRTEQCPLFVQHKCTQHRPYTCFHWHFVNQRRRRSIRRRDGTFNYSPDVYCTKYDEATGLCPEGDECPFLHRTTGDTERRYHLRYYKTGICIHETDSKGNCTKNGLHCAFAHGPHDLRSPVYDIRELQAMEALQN

B1: chr5:74638446:74638447:+_ENSG00000113161_ENST00000287936|hu_hu|FALSE|FALSE (ssRNA)
RNA: GGGAGUUCUACAGUCCGACGAUCAGGGAUGGGAGGCCACAAAGAGGCCAUGCAUUCGAAAAAGUCUUGACAACAUUGUAGCUACAGAAUCCUUGGAUCCUCCAGAUCUCACUAGAGGCCACCGAACCCCGGCGCCGACGCUCACAACAGAGGAUUGAGCAUCA
B2: chr2:118749752:118749753:+_ENSMUSG00000040007_ENSMUST00000036578|mus_mus|FALSE|FALSE (ssRNA)
RNA: GGGAGUUCUACAGUCCGACGAUCAUUCCAUGUGAAGUCUUCCCUUUGGGUUUGGGAUAGGGCUUCCAAAACAACAACAAAAAAUUAACCUGUGAAGCCUUCAGGCCUACCCAGCCCAAUUACCCAUCAGGAACAGUUUAUCUUCAACAGAGGAUUGAGCAUCA
B3: chr6:149979360:149979361:-_ENSG00000131023_ENST00000543571|hu_hu|motif|central (ssRNA)
RNA: GGGAGUUCUACAGUCCGACGAUCAAAUGAUUGGGAAAAUACAAAUAAGUUCAUUAAAAACACAGGCUGAUUAUUCAUAUCGGUUACAUUCAGAAUUAUGCGAAACAAUUAGUUAUAUUGCAAAGCUGUAAUUCUUUUUCUAACCAACAGAGGAUUGAGCAUCA
B4: 142722499_142722619_4218_CDS_ENSMUSG00000057637_ENSMUST00000105778|mouse|control|control (ssRNA)
RNA: GGGAGUUCUACAGUCCGACGAUCCACUCCAUUUUUGGGCUGCACCGUCUGUCUCAGCGGCACUGGGUUUUUCUUAGGAGUGUACCUCUUCUUGUCACUUGCAGAUGCACACGCCAAGAUGUGCUUAUGCAGCUCAGGCAUGUUCAACAGAGGAUUGAGCAUCA
B5: chr17:60770872:60770873:+_ENSG00000011028_ENST00000303375|hu_hu|hu_hu_hu_mus_True|28_58 (ssRNA)
RNA: GGGAGUUCUACAGUCCGACGAUCUCUUUAAAAAAAAAAAAAAAAAGACAAACAAUAAUAGCACAUUUCGAGAAUCAUCAACUACAGUAGAGGGUCCGCUUUGAGUUGUCCAUGUUCUCGUCCUGCACUGGGACACGGGGACUGCAACAGAGGAUUGAGCAUCA
B6: 45479652_45480140_725_CDS_ENSG00000126088_ENST00000246337|human|control|control (ssRNA)
RNA: GGGAGUUCUACAGUCCGACGAUCCCCUGCAUGGGACUCAAACAGCUGCAAUGCCUGGGCACCAGCCACCACUUGUCCUACCAGAUAUGGGACCAGAGCAUCAGUGAGGAUGCGAAGCAGCUGGUGACUAGCCUGAGGUCUCUGCAACAGAGGAUUGAGCAUCA
B7: 85047046_85049060_925_CDS_ENSMUSG00000024253_ENSMUST00000025101|mouse|control|control (ssRNA)
RNA: GGGAGUUCUACAGUCCGACGAUCGGUGCCGGUACUCUUUGGUGGGAAGAGCUUGUCAUACACCUUUUUCCACAGCUCCAUAGGUGAGUGGGCCUGAAGUUUUCCAAUGUCACUGUCAGGAACAGGAGGAGACCCUAUCUGACACAACAGAGGAUUGAGCAUCA
B8: chr5:6374476:6374477:-_ENSG00000133398_ENST00000255764|hu_mus|motif|central (ssRNA)
RNA: GGGAGUUCUACAGUCCGACGAUCUAGGCUUUUAAAUUUCUUCAUUGUGUCGAUCUUGCCCUUGACUUGCUCGUUUUUAGCGGGAGCCCUCUCCAGGCAUUCUUUGGUGUAGAGCUGGGGAUUCCGACCUUGAUCAAUGUAUUCCAACAGAGGAUUGAGCAUCA
B9: chr3:176767854:176767855:-_ENSG00000177565_ENST00000430069|hu_hu|hu_hu_hu_mus_False|68_68 (ssRNA)
RNA: GGGAGUUCUACAGUCCGACGAUCGACAUCCUUGUUACUGGGCACGUCCUGCCCUCCUUCCCGUAUGCAAUGUCUAAGCACGAGCUGCGUAGGGCCACUCGUGCUGUUCUCACUGAGGUUCCAGAUUCUUGCCGUGGAGUCUCCCAACAGAGGAUUGAGCAUCA
B10: chr22:38894135:38894136:-_ENSG00000100201_ENST00000396821|hu_hu|motif|central (ssRNA)
RNA: GGGAGUUCUACAGUCCGACGAUCAUAGUCAUCGGCCACCUGCUGUACUUGCUGGGCAAGCUCUCUGGUAGGAGCCAGAACGGGACAGAUUGGGCCAUCUCCCCUUUCCAAGUAUGGCUGGUGGUUAAUAUGAACAAUUGCAGGCAACAGAGGAUUGAGCAUCA
B11: chr2:5814250:5814251:-_ENSMUSG00000025816_ENSMUST00000102981|mus_hu|mus_mus_mus_hu_True|58_78 (ssRNA)
RNA: GGGAGUUCUACAGUCCGACGAUCUUCCUUUCCGGUUUCUGAAUUUCUGGUAGAACUGCACAGAAAGGUUUGAUAACUUCUAAAAACUUGAUGCCCAUGGCUGCUGCUGGGGAGGCCCAGGGGGAAACCGCGGCCUCGGCGCUGCAACAGAGGAUUGAGCAUCA
B12: chr4:81121375:81121376:+_ENSG00000152784_ENST00000415738|hu_hu|motif|central (ssRNA)
RNA: GGGAGUUCUACAGUCCGACGAUCUACCCGAAAGAUAUACGGUACUGUUCUCUUGUCAGUAGACUUGAGAGCUAUGAAAGCGGUGCUGUCAUAUAGGGAAGUAUGGCUCAGGACACAGGGACCAAAUAUAGCAUUCUCAGGGAUCAACAGAGGAUUGAGCAUCA
B13: chr16:1877921:1877922:+_ENSG00000180185_ENST00000427358|hu_mus|FALSE|FALSE (ssRNA)
RNA: GGGAGUUCUACAGUCCGACGAUCUUUCAUUAUUAGUGUCAUUUAUUUCCCUUGCUUCUGUCUCCCUUCCCCUUUGGCACUCUACUCUCAGUAUUCUGAUCUUUUCACCUUGAACCUCAUACUAACCACCCCAUCUAUGCCGGCCAACAGAGGAUUGAGCAUCA
B14: chr1:78428520:78428521:-_ENSG00000162613_ENST00000370768|hu_hu|FALSE|FALSE (ssRNA)
RNA: GGGAGUUCUACAGUCCGACGAUCCCCUAAAGGAUUUACUGGGCCACCAAUCUUUUCUUCUAUGAGUUGCCGAGCAUAGUCUAUCUGUUGUGGAGUGCCACGAAUUGUAAAUAACUUCAUAUUAGGAUCUGCAUUUGGUGGAGGCAACAGAGGAUUGAGCAUCA
B15: chr11:130013608:130013609:+_ENSG00000084234_ENST00000528499|hu_mus|FALSE|FALSE (ssRNA)
RNA: GGGAGUUCUACAGUCCGACGAUCUAGAGCAUGUGUGAGACAAUACAAUAGAAGUGGCAUUUCUAAUUUAAAAAAAGAAAACUACAUCCAUCAGAUAUCUGCAAUAGAUCUUUUUCUUUCAUUUCACUUAAGGUUUAUAUAUCACAACAGAGGAUUGAGCAUCA
B16: chr19:16212804:16212805:+_ENSG00000167460_ENST00000300933|hu_mus|hu_hu_hu_mus_False|68_108 (ssRNA)
RNA: GGGAGUUCUACAGUCCGACGAUCAACAAAUAUGCAAUGAAGGAAAGAUGUAACAUGGAACAGCAUUCCAUCUAUUACAGAAGGCACAUGGGCAACAAUGAUCACCCCAGCAUUCUCGCUUGGAAUGCUUAAAGACAAUCUGUUCAACAGAGGAUUGAGCAUCA
B17: chr22:35691198:35691199:+_ENSG00000100281_ENST00000216106|hu_hu|FALSE|FALSE (ssRNA)
RNA: GGGAGUUCUACAGUCCGACGAUCCCUUUAAGCAACAUAGCCCUGUGACAACACUGGUGGGGAGAAGGGAAGAAAUUAAAUAGGAUGCAGAUGGGCUACACUGUCCCCAAAGAUUUACUUUGAUGCUGUAGUGCUCUGUCAGGGCAACAGAGGAUUGAGCAUCA
B18: chr3:41267201:41267202:+_ENSG00000168036_ENST00000349496|hu_hu|motif|central (ssRNA)
RNA: GGGAGUUCUACAGUCCGACGAUCCAAGAAUUUAACAUUUGUUUUGUUGAGCAAGGCAACCAUUUUCUGCAGCCCACCAGCGGAACGCACUGCCAUUUUAGCUCCUUCUUGAUGUAAUAAAAGGUUGUGGAGAGUUGUAAUGGCCAACAGAGGAUUGAGCAUCA
B19: chr11:101919151:101919152:-_ENSMUSG00000017314_ENSMUST00000017458|mus_mus|FALSE|FALSE (ssRNA)
RNA: GGGAGUUCUACAGUCCGACGAUCAAAUGAGAUUCCUAAUAUAAUAAAUAUAUUUCUAGCAUUUGUAAUAAAUAUUCUGUCUAUUCUCCCUCCCUCCCCUUCUCUAGGAUAUGGGCACACAGUGGUUCAGGGACAAGCUUGGGCCAACAGAGGAUUGAGCAUCA
B20: chr9:108415247:108415248:+_ENSMUSG00000032604_ENSMUST00000006838|mus_mus|FALSE|FALSE (ssRNA)
RNA: GGGAGUUCUACAGUCCGACGAUCCAUUGCCUCAAAGAGCAGCAAUGAUUCUUCCUUAGGCCUGUCCCUCCAUGGAGAAGGUAAAGGGUUAUGGCCUUUGAGCUCUUCCACUCUCUGGUGACACACAUAAGCAAGACCCCCAUGCAACAGAGGAUUGAGCAUCA
B21: chr2:24297012:24297013:-_ENSG00000115128_ENST00000233468|hu_hu|FALSE|FALSE (ssRNA)
RNA: GGGAGUUCUACAGUCCGACGAUCACGAAUAGGUCCAUAUUUCCCAAAUAUAUCAUACAUUUCUUCAGCUGUGAUUUUGUAUGGCAAAUUUCUUAUAUACAAUAUCCGAUUUACUUCAGGUGGAAGUCGAAUGUUCGCCCUCUUCAACAGAGGAUUGAGCAUCA
B22: chr10:33190432:33190433:-_ENSG00000150093_ENST00000302278|hu_mus|hu_hu_hu_mus_True|48_48 (ssRNA)
RNA: GGGAGUUCUACAGUCCGACGAUCUACAUUUUCCAAACCUGCAUGUGAAUAAAACCCUGGCCACAGAGCCCCAAAACUACCCUACUGUGACUAUGGAGCUGCUGCUGUGAGCUUGGUGUUGCAAAAUCCGCCUGAGUAGGAUUCCAACAGAGGAUUGAGCAUCA

target: T1, UNK ZnF1-3; experiment: nsRBNS (natural sequence RNA bind-n-seq); RBNS binding buffer (assumed for nsRBNS): 25 mM Tris pH 7.5, 150 mM KCl, 3 mM MgCl2, 0.01% Triton X-100, 500 ug/ml BSA, 20 U/ml SUPERase-In, 4 C; UNK is unkempt and MSI1 is Musashi-1; names of the RNAs are library labels; protein concentration not given here; high values mean tight binding

Binder | binding signal [enrichment R]
B1 | 1.25
B2 | 0.603
B3 | 0.805
B4 | 0.271
B5 | 3.17
B6 | 1.12
B7 | 0.861
B8 | 0.577
B9 | 0.498
B10 | 0.524
B11 | 1.25
B12 | 1.34
B13 | 0.642
B14 | 1.47
B15 | 1.75
B16 | 0.677
B17 | 1.45
B18 | 1.16
B19 | 2.27
B20 | 0.896
B21 | 0.47
B22 | 0.951
